# Experimental data published in the supplement of paper PMC8728848.
# This is one part of the list.
# B1: Pwp3 (Candida glabrata) (protein)
# chain: MGSSHHHHHHSSGLVPRGSHMASKNPVDFTTVCQFPDNFSKKPGFLATTARLGLWITGNSYKELLNYPGTFTLTTQQASTTTPNIQLRGTDLFTTIYGLTVYPLYLLVELQGYFVPTQSGMYTFSLTGSDDAAIIFIGNPSTFPCDAFKTWPQATANDITVTDSINPSRTLYMVKGVAYPLRIAYYNGLGNGVLNAAFTDPSGTKRTDWNGYIWQYDQCSTCTYK
# Experiments:
# Test in all cases: glycan array binding signal (z-score within array); higher = stronger binding
# Details in all cases: glycan notation: IUPAC condensed, linker removed
# [1] = biological target: Neu5Ac(a2-3)Gal(b1-3)GlcNAc6S
# Procedure, shortened: (§1)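 The binding signal is a Z-score computed within each array. Data were drawn from 3228 arrays in the Consortium for Functional Glycomics database, restricted to those with a known protein sequence. Scores were averaged over arrays of the same protein sequence at different concentrations or buffers, and over linkers, and negative values can be taken as non-binding.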
# [2] = biological target: Neu5Ac(a2-3)Gal(b1-3)[Fuc(a1-4)]GlcNAc
# Procedure, shortened: as §1
# [3] = biological target: Neu5Ac(a2-3)Gal(b1-3)[Fuc(a1-4)]GlcNAc(b1-3)Gal(b1-3)[Fuc(a1-4)]GlcNAc
# Procedure, shortened: as §1
# [4] = biological target: Neu5Ac(a2-3)Gal(b1-3)[Fuc(a1-4)]GlcNAc(b1-3)Gal(b1-4)[Fuc(a1-3)]GlcNAc
# Procedure, shortened: as §1
# [5] = biological target: Neu5Ac(a2-3)Gal(b1-3)[GlcNAc(b1-6)]GalNAc
# Procedure, shortened: as §1
# [6] = biological target: Neu5Ac(a2-3)Gal(b1-3)[Neu5Ac(a2-6)]GalNAc
# Procedure, shortened: as §1
# [7] = biological target: Neu5Ac(a2-3)Gal(b1-3)[Neu5Ac(a2-6)]GlcNAc(b1-3)[Fuc(a1-3)[Gal(b1-4)]GlcNAc(b1-6)]Gal(b1-4)Glc
# Procedure, shortened: as §1
# [8] = biological target: Neu5Ac(a2-3)Gal(b1-3)]Neu5Ac(a2-3)Gal(b1-4)]GlcNAc
# Procedure, shortened: as §1
# Neu5Ac(a2-3)Gal(b1-4)Glc = biological target: Neu5Ac(a2-3)Gal(b1-4)Glc
# Procedure, shortened: as §1
# [9] = biological target: Neu5Ac(a2-3)Gal(b1-4)GlcNAc
# Procedure, shortened: as §1
# [10] = biological target: Neu5Ac(a2-3)Gal(b1-4)GlcNAc(b1-2)Man
# Procedure, shortened: as §1
# [11] = biological target: Neu5Ac(a2-3)Gal(b1-4)GlcNAc(b1-2)Man(a1-3)[GlcNAc(b1-4)][Neu5Ac(a2-3)Gal(b1-4)GlcNAc(b1-2)Man(a1-6)]Man(b1-4)GlcNAc(b1-4)GlcNAc
# Procedure, shortened: as §1
# [12] = biological target: Neu5Ac(a2-3)Gal(b1-4)GlcNAc(b1-2)Man(a1-3)[Neu5Ac(a2-3)Gal(b1-4)GlcNAc(b1-2)Man(a1-6)]Man(b1-4)GlcNAc(b1-4)GlcNAc
# Procedure, shortened: as §1
# [13] = biological target: Neu5Ac(a2-3)Gal(b1-4)GlcNAc(b1-2)Man(a1-3)[Neu5Ac(a2-3)Gal(b1-4)GlcNAc(b1-2)Man(a1-6)]Man(b1-4)GlcNAc(b1-4)[Fuc(a1-6)]GlcNAc
# Procedure, shortened: as §1
# [14] = biological target: Neu5Ac(a2-3)Gal(b1-4)GlcNAc(b1-2)Man(a1-3)[Neu5Ac(a2-6)Gal(b1-4)GlcNAc(b1-2)Man(a1-6)]Man(b1-4)GlcNAc(b1-4)GlcNAc
# Procedure, shortened: as §1
# [15] = biological target: Neu5Ac(a2-3)Gal(b1-4)GlcNAc(b1-2)[Neu5Ac(a2-3)Gal(b1-4)GlcNAc(b1-4)]Man(a1-3)[GlcNAc(b1-4)][Neu5Ac(a2-3)Gal(b1-4)GlcNAc(b1-2)[Neu5Ac(a2-3)Gal(b1-4)GlcNAc(b1-6)]Man(a1-6)]Man(b1-4)GlcNAc(b1-4)GlcNAc
# Procedure, shortened: as §1
# [16] = biological target: Neu5Ac(a2-3)Gal(b1-4)GlcNAc(b1-2)[Neu5Ac(a2-3)Gal(b1-4)GlcNAc(b1-4)]Man(a1-3)[GlcNAc(b1-4)][Neu5Ac(a2-3)Gal(b1-4)GlcNAc(b1-4)Man(a1-6)]Man(b1-4)GlcNAc(b1-4)GlcNAc
# Procedure, shortened: as §1
# [17] = biological target: Neu5Ac(a2-3)Gal(b1-4)GlcNAc(b1-2)[Neu5Ac(a2-3)Gal(b1-4)GlcNAc(b1-6)]Man(a1-6)[Neu5Ac(a2-3)Gal(b1-4)GlcNAc(b1-2)Man(a1-3)][GlcNAc(b1-4)]Man(b1-4)GlcNAc(b1-4)GlcNAc
# Procedure, shortened: as §1
# [18] = biological target: Neu5Ac(a2-3)Gal(b1-4)GlcNAc(b1-3)Gal
# Procedure, shortened: as §1
# [19] = biological target: Neu5Ac(a2-3)Gal(b1-4)GlcNAc(b1-3)Gal(b1-3)GlcNAc
# Procedure, shortened: as §1
# [20] = biological target: Neu5Ac(a2-3)Gal(b1-4)GlcNAc(b1-3)Gal(b1-4)GlcNAc
# Procedure, shortened: as §1
# [21] = biological target: Neu5Ac(a2-3)Gal(b1-4)GlcNAc(b1-3)Gal(b1-4)GlcNAc(b1-2)Man(a1-3)[Neu5Ac(a2-3)Gal(b1-4)GlcNAc(b1-3)Gal(b1-4)GlcNAc(b1-2)Man(a1-6)]Man(b1-4)GlcNAc(b1-4)GlcNAc
# Procedure, shortened: as §1
# [22] = biological target: Neu5Ac(a2-3)Gal(b1-4)GlcNAc(b1-3)Gal(b1-4)GlcNAc(b1-3)Gal(b1-4)GlcNAc
# Procedure, shortened: as §1
# [23] = biological target: Neu5Ac(a2-3)Gal(b1-4)GlcNAc(b1-3)Gal(b1-4)GlcNAc(b1-3)Gal(b1-4)GlcNAc(b1-2)Man(a1-3)[Neu5Ac(a2-3)Gal(b1-4)GlcNAc(b1-3)Gal(b1-4)GlcNAc(b1-3)Gal(b1-4)GlcNAc(b1-2)Man(a1-6)]GalNAc
# Procedure, shortened: as §1
# [24] = biological target: Neu5Ac(a2-3)Gal(b1-4)GlcNAc(b1-3)Gal(b1-4)GlcNAc(b1-3)GalNAc
# Procedure, shortened: as §1
# [25] = biological target: Neu5Ac(a2-3)Gal(b1-4)GlcNAc(b1-3)Gal(b1-4)GlcNAc(b1-3)[Neu5Ac(a2-3)Gal(b1-4)GlcNAc(b1-3)Gal(b1-4)GlcNAc(b1-6)]GalNAc
# Procedure, shortened: as §1
# [26] = biological target: Neu5Ac(a2-3)Gal(b1-4)GlcNAc(b1-3)Gal(b1-4)GlcNAc(b1-6)[Gal(b1-3)]GalNAc
# Procedure, shortened: as §1
# [27] = biological target: Neu5Ac(a2-3)Gal(b1-4)GlcNAc(b1-3)Gal(b1-4)[Fuc(a1-3)]GlcNAc
# Procedure, shortened: as §1
# [28] = biological target: Neu5Ac(a2-3)Gal(b1-4)GlcNAc(b1-3)GalNAc
# Procedure, shortened: as §1
# [29] = biological target: Neu5Ac(a2-3)Gal(b1-4)GlcNAc(b1-3)[Neu5Ac(a2-3)Gal(b1-4)GlcNAc(b1-6)]GalNAc
# Procedure, shortened: as §1
binder,measurement,setting,value
B1,glycan array binding signal (z-score),[1],-0.443
same,glycan array binding signal (z-score),[2],-0.331
same,glycan array binding signal (z-score),[3],-0.245
same,glycan array binding signal (z-score),[4],0.335
same,glycan array binding signal (z-score),[5],0.308
same,glycan array binding signal (z-score),[6],-0.17
same,glycan array binding signal (z-score),[7],-0.33
same,glycan array binding signal (z-score),[8],-0.06
same,glycan array binding signal (z-score),Neu5Ac(a2-3)Gal(b1-4)Glc,0.697
same,glycan array binding signal (z-score),[9],-0.656
same,glycan array binding signal (z-score),[10],-0.311
same,glycan array binding signal (z-score),[11],0.319
same,glycan array binding signal (z-score),[12],-0.604
same,glycan array binding signal (z-score),[13],0.057
same,glycan array binding signal (z-score),[14],0.985
same,glycan array binding signal (z-score),[15],1.42
same,glycan array binding signal (z-score),[16],0.337
same,glycan array binding signal (z-score),[17],-1.54
same,glycan array binding signal (z-score),[18],0.133
same,glycan array binding signal (z-score),[19],-0.765
same,glycan array binding signal (z-score),[20],-0.31
same,glycan array binding signal (z-score),[21],-0.24
same,glycan array binding signal (z-score),[22],-0.379
same,glycan array binding signal (z-score),[23],-0.432
same,glycan array binding signal (z-score),[24],-0.424
same,glycan array binding signal (z-score),[25],0.044
same,glycan array binding signal (z-score),[26],2.29
same,glycan array binding signal (z-score),[27],0.188
same,glycan array binding signal (z-score),[28],-0.234
same,glycan array binding signal (z-score),[29],2.16
